Source: the supplement of paper PMC9446081
The whole screen tested about 39,000 compounds, of which about 220 (0.56%) showed activity. The list shows a part of the results.

Tested on: Escherichia coli K-12 BW25113
Assay: relative growth (OD600 normalised to plate interquartile mean) (fraction); higher = less growth inhibition, active = 0.2 or less
Settings: 50 µM; LB; incubation time: overnight (16-24 h)
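Also: static incubation at 37 °C against the wild-type strain, values averaged over two biological replicates.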

Row | Structure (SMILES) | relative growth
1 | CC(C)/C(=N/O)c1ccccc1 | inactive: 0.962
2 | O=C(N[C@@H]1C=C[C@H](CC(=O)N2CCOCC2)O[C@H]1CO)c1ccc2c(c1)OCO2 | inactive: 1.01
3 | COCC#Cc1cnc2c(c1)C(=O)N([C@H](C)CO)C[C@@H](C)[C@H](CN(C)C(=O)c1cnccn1)O2 | inactive: 0.982
4 | Cc1ccc(S(=O)(=O)O)cc1.NC1CCN(c2nc3c(cc2F)c(=O)c(C(=O)O)cn3-c2ccc(F)cc2F)C1.O (stereo not drawn) | active: 0.0925
5 | Fc1ccccc1[C@H]1Nc2ccc3ccccc3c2[C@H]2C=CC[C@@H]21 | inactive: 1.02
6 | C[C@H]1CN([C@@H](C)CO)C(=O)c2cccc(NS(=O)(=O)c3ccccc3)c2O[C@H]1CN(C)Cc1ccncc1 | inactive: 0.986
7 | C[C@H]1CN([C@@H](C)CO)C(=O)c2cccc(NS(=O)(=O)c3ccc(Cl)cc3)c2O[C@@H]1CN(C)Cc1ccc(C(=O)Nc2ccccc2N)cc1 | inactive: 0.987
8 | Cc1noc(C)c1S(=O)(=O)Nc1ccc2c(c1)CC(=O)N([C@@H](C)CO)C[C@@H](C)[C@H](CN(C)S(=O)(=O)c1ccc(Cl)cc1)O2 | inactive: 1.06
9 | C[C@H](CO)N1C[C@H](C)[C@@H](CN(C)C(=O)Nc2ccc(N3CCN(C)CC3)cc2)OCc2cnnn2CCCC1=O | inactive: 0.994
10 | C[C@H](CO)N1C[C@H](C)[C@@H](CN(C)S(=O)(=O)c2ccc(Cl)cc2)Oc2ccc(NS(=O)(=O)c3cn(C)cn3)cc2C1=O | inactive: 0.982
11 | C[C@H]1CN([C@@H](C)CO)C(=O)c2cccc(NC(=O)Nc3cccc4ccccc34)c2O[C@H]1CN(C)C(=O)NC1CCCCC1 | inactive: 1.01
12 | CC(C)NC(=O)[C@@]1(C)c2ccccc2C(=O)N(Cc2ccc(OC(F)(F)F)cc2)[C@H]1c1ccc(CO)cc1 | inactive: 1.02
13 | COc1ccccc1S(=O)(=O)N[C@H]1C=C[C@H](CC(=O)N2CCN(C)CC2)O[C@H]1CO | inactive: 0.978
14 | CS(=O)(=O)NC[C@@H]1OC[C@@H]2CCN(C(=O)c3ccnnc3)C[C@@H]21 | inactive: 1.02
15 | C[C@H](CO)N1C[C@H](C)[C@@H](CN(C)Cc2ccc(Oc3ccccc3)cc2)Oc2ncc(-c3cccnc3)cc2C1=O | inactive: 1.01
16 | CO[C@H]1CN(C)C(=O)c2ccc(NS(C)(=O)=O)cc2OC[C@@H](C)N(S(C)(=O)=O)C[C@@H]1C | inactive: 1.03
17 | C[C@H]1CN([C@@H](C)CO)C(=O)Cc2cc(NS(=O)(=O)c3cccs3)ccc2O[C@H]1CN(C)Cc1ccc(Cl)c(Cl)c1 | inactive: 1.01
18 | C[C@@H]1CN([C@H](C)CO)C(=O)c2cc(NS(=O)(=O)c3ccccc3)ccc2O[C@@H]1CN(C)S(C)(=O)=O | inactive: 0.996
19 | COc1ccc(S(=O)(=O)N(C)C[C@H]2OCCCC[C@H](C)Oc3ccc(NC(=O)CCC(F)(F)F)cc3C(=O)N([C@H](C)CO)C[C@@H]2C)cc1 | inactive: 0.997
20 | CO[C@@H](CN(C)C(=O)c1ccc2c(c1)OCO2)[C@H](C)CN([C@@H](C)CO)S(=O)(=O)c1ccc(C)cc1 | inactive: 1.01

Row | Structure (SMILES) | relative growth
21 | CN1CCN(C(=O)C[C@H]2CC[C@@H]3[C@@H](COc4ccc(NC(=O)c5ccc(F)c(F)c5)cc4C(=O)N3C)O2)CC1 | inactive: 1.01
22 | C[C@@H]1CN([C@@H](C)CO)C(=O)c2cc(NC(=O)C3CCCCC3)ccc2O[C@@H](C)CCCCO[C@@H]1CN(C)C(=O)CCC(F)(F)F | inactive: 0.988
23 | CCSC(=N)N | inactive: 0.964
24 | CC[C@@H](C)[C@H]1O[C@@]2(CC[C@@H]1C)C[C@H]1C[C@@H](CC=C(C)[C@@H](O[C@H]3C[C@@H](OC)[C@@H](O[C@H]4C[C@@H](OC)[C@@H](O)[C@@H](C)O4)[C@@H](C)O3)[C@@H](C)C=CC=C3CO[C@H]4[C@@H](O)C(C)=C[C@@H](C(=O)O1)[C@]34O)O2.CO[C@H]1C[C@@H](O[C@@H]2[C@@H](OC)C[C@@H](O[C@@H]3C(C)=CC[C@@H]4C[C@@H](C[C@@]5(CC[C@@H](C)[C@H](C(C)C)O5)O4)OC(=O)[C@@H]4C=C(C)[C@H](O)[C@@H]5OCC(=CC=C[C@@H]3C)[C@@]45O)O[C@@H]2C)O[C@@H](C)[C@@H]1O | inactive: 1
25 | COc1ccc(NC(=O)N(C)C[C@H]2OCc3ccccc3-c3c(n(C)c4ccccc34)C(=O)N([C@@H](C)CO)C[C@@H]2C)cc1 | inactive: 0.992
26 | CCOC(=O)CC1=NC(=O)CS1 | inactive: 1
27 | C[C@@H]1CN([C@@H](C)CO)C(=O)c2cccc(NS(C)(=O)=O)c2O[C@@H]1CN(C)C(=O)Nc1ccccc1 | inactive: 1.01
28 | C[C@H](CO)N1C[C@H](C)[C@@H](CN(C)Cc2ccc3c(c2)OCO3)OCCCC[C@H](C)Oc2ccc(NC(=O)Nc3cccc4ccccc34)cc2C1=O | inactive: 1.03
29 | C[C@H](CO)N1C[C@H](C)[C@@H](CN(C)C(=O)C2CCCCC2)Oc2cc(Br)ccc2S1(=O)=O | inactive: 0.999
30 | O=c1[nH]cc(N2CCCCC2)c(=O)[nH]1 | inactive: 1
31 | CC(C)(C)[S@](=O)N1Cc2cc(C(=O)N[C@H]3CCN(Cc4ccccc4)C3)nc(-c3cccc(-c4cccnc4)c3)c2[C@@H]1CCO | inactive: 1.03
32 | COc1ccc(S(=O)(=O)Nc2ccc3c(c2)CC(=O)N([C@H](C)CO)C[C@@H](C)[C@H](CN(C)Cc2ccc(Cl)c(Cl)c2)O3)cc1 | inactive: 0.971
33 | CCCN(C)C[C@H]1OCCCC[C@@H](C)Oc2ccc(NC(=O)Nc3ccccc3)cc2C(=O)N([C@H](C)CO)C[C@@H]1C | inactive: 0.989
34 | CO[C@@H]1CN(C)C(=O)c2cc(NS(=O)(=O)c3ccccc3F)ccc2OC[C@@H](C)N(S(C)(=O)=O)C[C@H]1C | inactive: 0.991
35 | CC(=O)c1ccc(S(=O)(=O)NC(=O)NC2CCCCC2)cc1 | inactive: 1.03
36 | O=C(C[C@H]1CC=CC[C@H](Cc2ccc(F)cc2)C(=O)OC[C@H](Cc2c[nH]c3ccccc23)NC1=O)NCCO | inactive: 1.01
37 | O=C(c1ccc(S(=O)(=O)N2CCCCCC2)cc1)N(Cc1cccnc1)c1nc2c(F)cc(F)cc2s1 | inactive: 0.994
38 | Cc1noc(C)c1S(=O)(=O)N(C)C[C@@H]1Oc2c(NS(C)(=O)=O)cccc2C(=O)N([C@@H](C)CO)C[C@H]1C | inactive: 1.01
39 | CC(=O)n1cc([C@H]2C=C(C(=O)N3CCN(C)CC3)O[C@@H](OCc3ccc(CO)cc3)C2)c2ccccc21 | inactive: 1
40 | CCS(=O)(=O)Nc1ccc2c(c1)C(=O)N(C)C[C@@H](OC)[C@@H](C)CN(Cc1nccs1)[C@H](C)CO2 | inactive: 1

Row | Structure (SMILES) | relative growth
41 | C[C@@H]1CN([C@@H](C)CO)C(=O)Cc2cc(NC(=O)Cn3cnnn3)ccc2O[C@@H]1CN(C)Cc1ccc(C(F)(F)F)cc1 | inactive: 0.97
42 | C[C@H](CO)N1C[C@H](C)[C@@H](CN(C)Cc2ccc(C(=O)Nc3ccccc3N)cc2)Oc2c(NC(=O)c3nc4ccccc4s3)cccc2C1=O | inactive: 1.02
43 | C[C@@H]1CCCCO[C@H](CN(C)CC2CCCCC2)[C@H](C)CN([C@@H](C)CO)C(=O)c2cc(NC(=O)C3CCCCC3)ccc2O1 | inactive: 0.979
44 | COc1ccc(NC(=O)Nc2ccc3c(c2)C(=O)N([C@@H](C)CO)C[C@@H](C)[C@H](CN(C)CC2CC2)OCCCC[C@@H](C)O3)cc1 | inactive: 0.945
45 | C[C@H]1CCCCO[C@H](CN(C)S(=O)(=O)c2ccc(Cl)cc2)[C@@H](C)CN([C@@H](C)CO)C(=O)c2cc(NC(=O)Nc3ccc(C(F)(F)F)cc3)ccc2O1 | inactive: 1.04
46 | C[C@@H]1CN([C@@H](C)CO)C(=O)c2c(c3ccccc3n2C)-c2ccccc2CO[C@H]1CN(C)C(=O)Nc1cccc(C(F)(F)F)c1 | inactive: 1.03
47 | C[C@H](CO)N1C[C@H](C)[C@@H](CN(C)Cc2ccc3c(c2)OCO3)Oc2ccc(NS(=O)(=O)c3cn(C)cn3)cc2CC1=O | inactive: 1.01
48 | C[C@@H]1CCCCO[C@@H](CN(C)C(=O)Nc2ccc(C(F)(F)F)cc2)[C@H](C)CN([C@H](C)CO)C(=O)c2cc(NC(=O)Nc3cccc4ccccc34)ccc2O1 | inactive: 0.973
49 | CC1(C)C[C@H](n2[nH]c(=O)cc2N)CCO1 | inactive: 0.983
50 | C[C@@H]1CN([C@H](C)CO)C(=O)Cc2cc(NC(=O)Nc3ccc(C(F)(F)F)cc3)ccc2O[C@H]1CN(C)Cc1ccncc1 | inactive: 1.02
51 | Cc1noc(C)c1S(=O)(=O)Nc1ccc2c(c1)C(=O)N([C@@H](C)CO)C[C@H](C)[C@H](CN(C)S(=O)(=O)c1cn(C)cn1)OCCCC[C@H](C)O2 | inactive: 0.988
52 | COc1cccc(S(=O)(=O)N[C@@H]2CC[C@@H](CC(=O)NC3CCC3)O[C@@H]2CO)c1 | inactive: 1.01
53 | C[C@H](CO)N1C[C@H](C)[C@H](CN(C)CC2CC2)OCCCC[C@H](C)Oc2ccc(NS(=O)(=O)c3cn(C)cn3)cc2C1=O | inactive: 1
54 | OCc1cccc(CO)n1 | inactive: 0.983
55 | Cc1ccc(-c2ccc3c(c2)O[C@@H](CN(C)Cc2cncnc2)[C@H](C)CN([C@H](C)CO)S3(=O)=O)cc1 | inactive: 1.01
56 | C[C@@H]1CCCCO[C@@H](CN(C)C(=O)Nc2cccc3ccccc23)[C@H](C)CN([C@@H](C)CO)C(=O)c2cc(NS(=O)(=O)c3cn(C)cn3)ccc2O1 | inactive: 0.99
57 | C[C@@H]1CN([C@@H](C)CO)C(=O)c2cc(NS(C)(=O)=O)ccc2O[C@@H](C)CCCCO[C@H]1CN(C)C(=O)CCCN(C)C | inactive: 1.02
58 | Cc1ccc(S(=O)(=O)Nc2ccc3c(c2)C(=O)N([C@@H](C)CO)C[C@@H](C)[C@H](CN(C)C(=O)CCC(F)(F)F)OCCCC[C@H](C)O3)cc1 | inactive: 0.979
